This is one part of the list. Repeats are few or missing, and single values can be far off.
System: C32
Assay: cell count relative to DMSO control; melanoma cells; higher = more viable cells
Conditions: library dose: standard library concentration; 72 h
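Further: cells treated in 1,536-well plates, then fixed and DAPI-stained, with nuclei counted from automated high-throughput microscope images.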

SMILES | cell count [%]
N#CC[C@H](C1CCCC1)n1cc(-c2ncnc3[nH]ccc23)cn1 [ruxolitinib] + Oc1cc(-c2nc(-c3ccccc3)[nH]c2-c2ccncc2)ccc1Cl [L779450] (first compound 5 µM, partner dose 1 µM) | 86.3
N#CC[C@H](C1CCCC1)n1cc(-c2ncnc3[nH]ccc23)cn1 [ruxolitinib] + CN(c1ncccc1CNc1nc(Nc2ccc3c(c2)CC(=O)N3)ncc1C(F)(F)F)S(C)(=O)=O [PF562271] (first compound 5 µM, partner dose 0.4 µM) | 55.6
Cc1cc(Nc2cc(N3CCN(C)CC3)nc(Sc3ccc(NC(=O)C4CC4)cc3)n2)n[nH]1 [Tozasertib] + COc1ccc(C2=N[C@@H](c3ccc(Cl)cc3)[C@@H](c3ccc(Cl)cc3)N2C(=O)N2CCNC(=O)C2)c(OC(C)C)c1 [Nutlin-3] (first compound 0.03 µM, partner dose 0.5 µM) | 61.4
CC[C@]1(O)C[C@H]2CN(CCc3c([nH]c4ccccc34)[C@@](C(=O)OC)(c3cc4c(cc3OC)N(C=O)[C@H]3[C@@](O)(C(=O)OC)[C@H](OC(C)=O)[C@]5(CC)C=CCN6CC[C@]43[C@@H]65)C2)C1 [vincristine] + Cc1cc(Nc2cc(N3CCN(C)CC3)nc(/C=C/c3ccccc3)n2)n[nH]1 [ENMD2076] (first compound 0.0005 µM, partner dose 0.2 µM) | 81.1
Cc1cc(Nc2cc(N3CCN(C)CC3)nc(Sc3ccc(NC(=O)C4CC4)cc3)n2)n[nH]1 [Tozasertib] + Cc1cc(N2CCOCC2)cc2[nH]c(-c3c(NC[C@@H](O)c4cccc(Cl)c4)cc[nH]c3=O)nc12 [BMS536924] (first compound 0.03 µM, partner dose 1 µM) | 77.5
Cc1cc(Nc2cc(N3CCN(C)CC3)nc(Sc3ccc(NC(=O)C4CC4)cc3)n2)n[nH]1 [Tozasertib] + O=C(O)c1ccc(-c2c[nH]c3ncc(-c4ccccc4)cc23)cc1C1CCCC1 [GSK650394] (first compound 0.03 µM, partner dose 0.8 µM) | 64.6
Cc1cc(Nc2cc(N3CCN(C)CC3)nc(Sc3ccc(NC(=O)C4CC4)cc3)n2)n[nH]1 [Tozasertib] + Nc1cccc2c1CN(C1CCC(=O)NC1=O)C2=O [lenalidomide] (first compound 0.03 µM, partner dose 5 µM) | 94.1
N#CC[C@H](C1CCCC1)n1cc(-c2ncnc3[nH]ccc23)cn1 [ruxolitinib] + CCN(CC)CCCCNc1ncc2cc(-c3cc(OC)cc(OC)c3)c(NC(=O)NC(C)(C)C)nc2n1 [PD173074] (first compound 5 µM, partner dose 0.5 µM) | 86.4
N#CC[C@H](C1CCCC1)n1cc(-c2ncnc3[nH]ccc23)cn1 [ruxolitinib] + O=C(CCCCCCC(=O)Nc1ccccc1)NO [vorinostat] (first compound 5 µM, partner dose 0.4 µM) | 96.7
CC[C@]1(O)C[C@H]2CN(CCc3c([nH]c4ccccc34)[C@@](C(=O)OC)(c3cc4c(cc3OC)N(C=O)[C@H]3[C@@](O)(C(=O)OC)[C@H](OC(C)=O)[C@]5(CC)C=CCN6CC[C@]43[C@@H]65)C2)C1 [vincristine] + COC(=O)c1sccc1S(=O)(=O)Nc1ccc(Nc2ccccc2)cc1OC [GSK0660] (first compound 0.0005 µM, partner dose 5 µM) | 55.4
CC[C@]1(O)C[C@H]2CN(CCc3c([nH]c4ccccc34)[C@@](C(=O)OC)(c3cc4c(cc3OC)N(C=O)[C@H]3[C@@](O)(C(=O)OC)[C@H](OC(C)=O)[C@]5(CC)C=CCN6CC[C@]43[C@@H]65)C2)C1 [vincristine] + O=C(/C=C/c1cccnc1)NCCCCC1CCN(C(=O)c2ccccc2)CC1 [FK866] (first compound 0.0005 µM, partner dose 0.05 µM) | 87.5
Cc1cc(Nc2cc(N3CCN(C)CC3)nc(Sc3ccc(NC(=O)C4CC4)cc3)n2)n[nH]1 [Tozasertib] + CC(C)(C)c1cnc(CSc2cnc(NC(=O)C3CCNCC3)s2)o1 [SNS-032] (first compound 0.03 µM, partner dose 0.05 µM) | 75.2
Cc1cc(Nc2cc(N3CCN(C)CC3)nc(Sc3ccc(NC(=O)C4CC4)cc3)n2)n[nH]1 [Tozasertib] + c1cc(-c2cnn3cc(-c4ccc(OCCN5CCCCC5)cc4)cnc23)ccn1 [Dorsomorphin] (first compound 0.03 µM, partner dose 2 µM) | 62.7
N#CC[C@H](C1CCCC1)n1cc(-c2ncnc3[nH]ccc23)cn1 [ruxolitinib] + Nc1ccn([C@@H]2O[C@H](CO)[C@@H](O)C2(F)F)c(=O)n1 [gemcitabine] (first compound 5 µM, partner dose 0.002 µM) | 88.9
Cc1cc(Nc2cc(N3CCN(C)CC3)nc(Sc3ccc(NC(=O)C4CC4)cc3)n2)n[nH]1 [Tozasertib] + CCN(CC)CCNC(=O)c1c(C)[nH]c(/C=C2\C(=O)Nc3ccc(F)cc32)c1C [sunitinib] (first compound 0.03 µM, partner dose 2 µM) | 53.3
Cc1cc(Nc2cc(N3CCN(C)CC3)nc(Sc3ccc(NC(=O)C4CC4)cc3)n2)n[nH]1 [Tozasertib] + Nc1ncn([C@H]2C[C@H](O)[C@@H](CO)O2)c(=O)n1 [decitabine] (first compound 0.03 µM, partner dose 0.5 µM) | 74.3
N#CC[C@H](C1CCCC1)n1cc(-c2ncnc3[nH]ccc23)cn1 [ruxolitinib] + Cc1cc([N+](=O)[O-])ccc1NS(=O)(=O)c1cc(Cl)ccc1Cl [FH535] (first compound 5 µM, partner dose 5 µM) | 91.3
CC[C@]1(O)C[C@H]2CN(CCc3c([nH]c4ccccc34)[C@@](C(=O)OC)(c3cc4c(cc3OC)N(C=O)[C@H]3[C@@](O)(C(=O)OC)[C@H](OC(C)=O)[C@]5(CC)C=CCN6CC[C@]43[C@@H]65)C2)C1 [vincristine] + Nc1nc(F)nc2c1ncn2[C@@H]1O[C@H](CO)[C@@H](O)[C@@H]1O [fludarabine] (first compound 0.0005 µM, partner dose 1 µM) | 81.5
Cc1cc(Nc2cc(N3CCN(C)CC3)nc(Sc3ccc(NC(=O)C4CC4)cc3)n2)n[nH]1 [Tozasertib] + C[C@]1(O)C[C@@H](c2nc(-c3ccc4ccc(-c5ccccc5)nc4c3)c3c(N)nccn32)C1 [OSI906] (first compound 0.03 µM, partner dose 2 µM) | 95.1
Cc1cc(Nc2cc(N3CCN(C)CC3)nc(Sc3ccc(NC(=O)C4CC4)cc3)n2)n[nH]1 [Tozasertib] + Cn1c(=O)n(-c2ccc(C(C)(C)C#N)cc2)c2c3cc(-c4cnc5ccccc5c4)ccc3ncc21 [NVP-BEZ235] (first compound 0.03 µM, partner dose 0.02 µM) | 106
CC[C@]1(O)C[C@H]2CN(CCc3c([nH]c4ccccc34)[C@@](C(=O)OC)(c3cc4c(cc3OC)N(C=O)[C@H]3[C@@](O)(C(=O)OC)[C@H](OC(C)=O)[C@]5(CC)C=CCN6CC[C@]43[C@@H]65)C2)C1 [vincristine] + C=CCn1c(=O)c2cnc(Nc3ccc(N4CCN(C)CC4)cc3)nc2n1-c1cccc(C(C)(C)O)n1 [MK1775] (first compound 0.0005 µM, partner dose 0.1 µM) | 60.6
Cc1cc(Nc2cc(N3CCN(C)CC3)nc(Sc3ccc(NC(=O)C4CC4)cc3)n2)n[nH]1 [Tozasertib] + N#Cc1c(O)c2c(-c3ccc(-c4ccccc4O)cc3)csc2[nH]c1=O [A769662] (first compound 0.03 µM, partner dose 10 µM) | 81.7
Cc1cc(Nc2cc(N3CCN(C)CC3)nc(Sc3ccc(NC(=O)C4CC4)cc3)n2)n[nH]1 [Tozasertib] + CN(C)S(=O)(=O)c1ccc2c(c1)/C(=C/c1cc3c([nH]1)CCCC3)C(=O)N2 [SU6656] (first compound 0.03 µM, partner dose 2 µM) | 72.4
N#CC[C@H](C1CCCC1)n1cc(-c2ncnc3[nH]ccc23)cn1 [ruxolitinib] + O=C(O)C(=O)Nc1sc2c(c1C(=O)O)CCNC2 [TCS401] (first compound 5 µM, partner dose 8.33333 µM) | 79.5
Cc1cc(Nc2cc(N3CCN(C)CC3)nc(Sc3ccc(NC(=O)C4CC4)cc3)n2)n[nH]1 [Tozasertib] + COc1cc2ncnc(Nc3ccc(Oc4ccccc4)cc3)c2cc1OC [SrcI1] (first compound 0.03 µM, partner dose 10 µM) | 87
Cc1cc(Nc2cc(N3CCN(C)CC3)nc(Sc3ccc(NC(=O)C4CC4)cc3)n2)n[nH]1 [Tozasertib] + CN(c1ncccc1CNc1nc(Nc2ccc3c(c2)CC(=O)N3)ncc1C(F)(F)F)S(C)(=O)=O [PF562271] (first compound 0.03 µM, partner dose 0.4 µM) | 64.5
N#CC[C@H](C1CCCC1)n1cc(-c2ncnc3[nH]ccc23)cn1 [ruxolitinib] + Cn1cnc2c(F)c(Nc3ccc(Br)cc3Cl)c(C(=O)NOCCO)cc21 [selumetinib] (first compound 5 µM, partner dose 0.075 µM) | 82
N#CC[C@H](C1CCCC1)n1cc(-c2ncnc3[nH]ccc23)cn1 [ruxolitinib] + c1cc(-c2cnn3cc(-c4ccc(OCCN5CCCCC5)cc4)cnc23)ccn1 [Dorsomorphin] (first compound 5 µM, partner dose 2 µM) | 36.2
